The full ranking holds about 33,000 sequences; the median of “E-score (dimensionless, -0.5 to 0.5)” is about -0.058, and the highest 2% start at about 0.35. The list shows a part of the results.
test system: MvaT; experiment: PBM 8-mer E-score (mean of HK and ME arrays) (E-score (dimensionless, -0.5 to 0.5)); higher = stronger relative binding preference; most listed sequences are background and not binding sites
How it was run: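 Full-length P. aeruginosa MvaT, with glutathione S-transferase fused to its N-terminus (cloned into pTH6838 by isothermal assembly), was tested by protein binding microarray using a previously described protocol. Two universal double-stranded 60-mer arrays (ME and HK) were used, each with a constant 25-mer primer region and a variable 35-mer region covering all 8-mers. The rank-based 8-mer E-score (-0.5 to 0.5) is the mean of the two arrays, parsed with a custom Python script.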

| Sequence | PBM 8-mer E-score |
| --- | --- |
| CTACGAAG | -0.109 |
| CAACCCTG | -0.133 |
| ACCTACGT | -0.102 |
| ATCGCACA | 0.126 |
| GCGCATGA | -0.0441 |
| CATGCACA | -0.000712 |
| GTTCATCA | -0.00275 |
| CTGATATA | 0.358 |
| GCAGATAC | -0.161 |
| AGCACTAG | -0.0135 |
| AGCTGACT | -0.113 |
| CTGTAGTA | 0.0877 |
| CTGCGAAA | -0.0653 |
| CGATCACC | -0.196 |
| ACGACTCT | 0.0428 |
| CATCTGGA | -0.234 |
| AACGTGCA | 0.0721 |
| GATAGCCC | -0.255 |
| CCGGCGTA | -0.0719 |
| GATTTTTA | 0.133 |
| CCTTCGAG | -0.305 |
| CGGTAGCC | -0.317 |
| CTGACTAA | 0.0191 |
| GGGTATAA | 0.258 |
| CGATACCA | -0.105 |

| Sequence | PBM 8-mer E-score |
| --- | --- |
| ACATTCTA | 0.162 |
| AACCGTGC | -0.122 |
| CCAATAGA | -0.0274 |
| CACTCTGA | -0.05 |
| CAGTTCGA | 0.0448 |
| ATTGTTGG | 0.14 |
| AGTGGGAA | -0.142 |
| CTGTATCA | 0.0667 |
| GAAGAATC | -0.0213 |
| GAGGCTGC | -0.316 |
| CGAGCCCC | -0.313 |
| GACTACCA | -0.139 |
| CCGGGTAA | -0.191 |
| ATTCCCTG | -0.116 |
| CGCCTGAC | -0.314 |
| GTCGAGCA | -0.194 |
| GATCCGCC | -0.198 |
| ACTGTGGA | -0.1 |
| AGGGAGGA | -0.202 |
| AAGCGCAA | 0.148 |
| AGACCAGA | -0.0764 |
| GTAGCTAC | -0.1 |
| CCGCCTAG | -0.263 |
| AATGGTCC | 0.006 |
| AGCAGTAG | -0.0568 |

| Sequence | PBM 8-mer E-score |
| --- | --- |
| CGGAACTA | 0.0106 |
| ATTGCTAA | 0.2 |
| CACATTAG | 0.162 |
| GAATATCC | 0.0901 |
| AGACGACT | -0.159 |
| GGATATCC | 0.0153 |
| CTTGGATC | -0.189 |
| ACGCAACT | 0.159 |
| GAAGATAA | 0.0746 |
| CAAGTCAG | -0.0705 |
| AACTTAAG | 0.333 |
| AGGGAAAG | 0.00229 |
| CGGTGGAA | -0.141 |
| GACCGATA | -0.00788 |
| ATGGAGTC | -0.00425 |
| GAACTGCC | -0.0924 |
| CCCGATCG | -0.198 |
| ATCTGCGA | -0.127 |
| ATGACAGC | -0.0847 |
| GAGGAAGC | -0.266 |
| GATGGAGA | -0.142 |
| CCTCCCTA | -0.302 |
| CTCAGCTC | -0.259 |
| CGACCAAC | -0.0331 |
| AATACTAG | 0.278 |

| Sequence | PBM 8-mer E-score |
| --- | --- |
| AAGATCTC | -0.101 |
| GGGAACAC | -0.198 |
| CTCTACCC | -0.0844 |
| ACGGGGCC | -0.145 |
| CTTTAAGC | 0.0372 |
| CTCGATCC | -0.131 |
| ACCCATGC | -0.165 |
| TCATCAGA | -0.0405 |
| AGACACCG | -0.0315 |
| TATTTCGA | 0.241 |
| AACCAACG | -0.019 |
| GGTGGTAC | -0.153 |
| GGCTGCCA | -0.173 |
| CCCCGTAC | -0.216 |
| AACGGAGC | -0.164 |
| CACACGTC | -0.15 |
| AAGTCACT | -0.024 |
| ACTCCCGG | -0.0571 |
| CAGATGTC | -0.245 |
| ATTCTGAG | -0.0321 |
| TATTGTCA | 0.266 |
| ATTTCACA | 0.296 |
| ACATGCCT | 0.058 |
| CATCTTCG | -0.126 |
| GTCACTGA | 0.00615 |

| Sequence | PBM 8-mer E-score |
| --- | --- |
| CTTACAAA | 0.146 |
| ACCGCCGA | -0.14 |
| ACACGAAA | 0.155 |
| GTCAATTA | 0.164 |
| ACGGTGCG | -0.242 |
| TAGTTATA | 0.402 |
| GACAATGC | -0.0838 |
| GAGATCCA | -0.143 |
| CGCGATCC | -0.146 |
| AATTCCGA | 0.0741 |
| AGATCTGG | -0.154 |
| GGCAACAA | 0.129 |
| AGAGATTC | -0.114 |
| AGCAGCGC | -0.29 |
| GGTGAGTA | 0.00574 |
| CGCGCCAC | -0.224 |
| AGACCCAA | -0.125 |
| CCAGCGTC | -0.0519 |
| CACTCATC | 0.00466 |
| AGTAGCAA | 0.111 |
| CAAAACCC | -0.218 |
| AGACCACG | -0.145 |
| GTGGAAAA | -0.0942 |
| GTGCGAAA | 0.00852 |
| AGGACTTC | -0.00568 |

| Sequence | PBM 8-mer E-score |
| --- | --- |
| AAACAAGA | 0.166 |
| ACTGACGG | -0.126 |
| ACTCCCTC | -0.122 |
| ACCATTGG | -0.248 |
| GACGCATA | 0.132 |
| CATGAATA | 0.235 |
| AACGCCTA | -0.157 |
| ACACACTC | 0.0301 |
| AGTCCTCG | -0.249 |
| AGGCCTGC | -0.212 |
| GGAGCGGA | -0.192 |
| CGGGAACG | -0.269 |
| ACCCCGAG | -0.293 |
| ATCACACA | 0.187 |
| CATCGACA | -0.0893 |
| AAGTGTGG | 0.136 |
| AAGTCGCC | -0.179 |
| GTGGGCAA | -0.0048 |
| GCGCTAAC | -0.049 |
| CCTGGACC | -0.233 |
| ACCCCACG | -0.199 |
| ATCGGAAC | -0.116 |
| CAGGCAAA | -0.0182 |
| AAATCCCC | -0.192 |
| ACGTCTAC | -0.155 |

| Sequence | PBM 8-mer E-score |
| --- | --- |
| CCAGAGCG | -0.269 |
| AACTTGGC | 0.112 |
| CTAACTAA | 0.286 |
| AGCCTGAA | -0.273 |
| ATGCTCGC | -0.134 |
| CATCGAGA | -0.0116 |
| CAATGGTG | -0.0529 |
| ATGGTTCC | -0.0171 |
| GTGGGAGA | -0.256 |
| CGACCGAG | -0.383 |
| CAACTTGC | 0.151 |
| AAAATTGC | 0.171 |
| AGCTCTGG | -0.183 |
| CGCGCACA | 0.0234 |
| AAAATGTC | 0.0242 |
| ATGCTAAC | 0.0574 |
| ACTCCGAC | -0.0954 |
| CTCAGAAG | -0.0743 |
| ACGGGTGG | -0.0208 |
| CATAACAA | 0.0795 |
| CCACCTAA | -0.0154 |
| AGACCGCT | -0.141 |

Source: the supplement of paper PMC4466236
